The list shows a part of the results. Most values come without repeats; read them as rough.
tested on: WM3619; experiment: cell count relative to DMSO control; melanoma cells; higher = more viable cells; details: library dose: standard library concentration; 72 h
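Also: cells treated in 1,536-well plates, then fixed and DAPI-stained, with nuclei counted from automated high-throughput microscope images.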

SMILES	cell count [%]
CC(C)(C)c1cnc(CSc2cnc(NC(=O)C3CCNCC3)s2)o1 + O=c1cc(-c2cccc3c2Sc2ccccc2S3)oc(N2CCOCC2)c1 [KU55933] (first compound 0.05 µM, partner dose 5 µM)	55.1
Cc1ccc(NC(=O)c2cccc(N(C)C)c2)cc1NC(=O)c1ccc(O)cc1 + COc1cc2ncnc(Nc3ccc(Oc4ccccc4)cc3)c2cc1OC [SrcI1] (first compound 10 µM, partner dose 10 µM)	66.9
CN(NC(=O)CC(=O)NN(C)C(=S)c1ccccc1)C(=S)c1ccccc1 + COc1ccc(COc2ccc(Cc3cnc(N)nc3N)cc2OC)cc1 [GW2580] (first compound 0.03 µM, partner dose 5 µM)	14
COc1cc2c(Oc3ccc4[nH]c(C)cc4c3F)ncnc2cc1OCCCN1CCCC1 [cediranib] + Oc1cc(-c2nc(-c3ccccc3)[nH]c2-c2ccncc2)ccc1Cl [L779450] (first compound 2 µM, partner dose 1 µM)	73.8
CCCCCCCCc1ccc(CCC(N)(CO)CO)cc1 [fingolimod] + CCc1ccc(CCOc2ccc(CC3SC(=O)NC3=O)cc2)nc1 [pioglitazone] (first compound 10 µM, partner dose 10 µM)	3.13
Cc1ccc(NC(=O)c2cccc(N(C)C)c2)cc1NC(=O)c1ccc(O)cc1 + N#Cc1c(O)c2c(-c3ccc(-c4ccccc4O)cc3)csc2[nH]c1=O [A769662] (first compound 10 µM, partner dose 10 µM)	87
CCc1ccc(CCOc2ccc(CC3SC(=O)NC3=O)cc2)nc1 (stereo not drawn) [pioglitazone] + O=c1cc(-c2cccc3c2Sc2ccccc2S3)oc(N2CCOCC2)c1 [KU55933] (first compound 10 µM, partner dose 5 µM)	93.5
CC(C)(C)c1cnc(CSc2cnc(NC(=O)C3CCNCC3)s2)o1 + Oc1cc(-c2nc(-c3ccccc3)[nH]c2-c2ccncc2)ccc1Cl [L779450] (first compound 0.05 µM, partner dose 1 µM)	79.7
CCc1ccc(CCOc2ccc(CC3SC(=O)NC3=O)cc2)nc1 (stereo not drawn) [pioglitazone] + COc1cc2ncnc(Nc3ccc(Oc4ccccc4)cc3)c2cc1OC [SrcI1] (first compound 10 µM, partner dose 10 µM)	68.6
Cc1ccc(NC(=O)c2cccc(N(C)C)c2)cc1NC(=O)c1ccc(O)cc1 + Cn1cc(/C=C2\C(=O)Nc3cccnc32)c2ccccc21 [GW441756] (first compound 10 µM, partner dose 2 µM)	75.2
NC(=O)c1ccc(N(C(N)=O)c2c(F)cccc2F)nc1-c1ccc(F)cc1F + O=C1NC(=O)/C(=C/c2ccc(-c3ccc(F)cc3O)o2)S1 [AS252424] (first compound 2 µM, partner dose 5 µM)	72.5
Cc1ccc(NC(=O)c2cccc(N(C)C)c2)cc1NC(=O)c1ccc(O)cc1 + c1cc(-c2cnn3cc(-c4ccc(OCCN5CCCCC5)cc4)cnc23)ccn1 [Dorsomorphin] (first compound 10 µM, partner dose 2 µM)	66.8
CN(NC(=O)CC(=O)NN(C)C(=S)c1ccccc1)C(=S)c1ccccc1 + O=c1cc(-c2cccc3c2Sc2ccccc2S3)oc(N2CCOCC2)c1 [KU55933] (first compound 0.03 µM, partner dose 5 µM)	4.64
CC(C)(C)c1cnc(CSc2cnc(NC(=O)C3CCNCC3)s2)o1 + Oc1nc(-c2ccc(C(F)(F)F)cc2)nc2c1CSCC2 [XAV939] (first compound 0.05 µM, partner dose 10 µM)	49.7
COc1cc2c(Oc3ccc4[nH]c(C)cc4c3F)ncnc2cc1OCCCN1CCCC1 [cediranib] + Cn1cc(/C=C2\C(=O)Nc3cccnc32)c2ccccc21 [GW441756] (first compound 2 µM, partner dose 2 µM)	107
CCc1ccc(CCOc2ccc(CC3SC(=O)NC3=O)cc2)nc1 (stereo not drawn) [pioglitazone] + CCN(CC)CCCCNc1ncc2cc(-c3cc(OC)cc(OC)c3)c(NC(=O)NC(C)(C)C)nc2n1 [PD173074] (first compound 10 µM, partner dose 0.5 µM)	97.7
CCCCCCCCc1ccc(CCC(N)(CO)CO)cc1 [fingolimod] + c1cc(-c2cnn3cc(-c4ccc(OCCN5CCCCC5)cc4)cnc23)ccn1 [Dorsomorphin] (first compound 10 µM, partner dose 2 µM)	3.46

SMILES	cell count [%]
CCc1ccc(CCOc2ccc(CC3SC(=O)NC3=O)cc2)nc1 (stereo not drawn) [pioglitazone] + CC(C)CCN1c2nc(Nc3cc(F)c(O)c(F)c3)ncc2N(C)C(=O)C1C [BID1870] (first compound 10 µM, partner dose 1 µM)	68.6
CCCCCCCCc1ccc(CCC(N)(CO)CO)cc1 [fingolimod] + COc1ccc2c(c1)CCC1C2CCC2(C)C(NCCCCCCN3C(=O)C=CC3=O)CCC12 [U73122] (first compound 10 µM, partner dose 2 µM)	2.83
CC(C)(C)c1cnc(CSc2cnc(NC(=O)C3CCNCC3)s2)o1 + O=C1NC(=O)/C(=C/c2ccc(-c3ccc(F)cc3O)o2)S1 [AS252424] (first compound 0.05 µM, partner dose 5 µM)	65.9
NC(=O)c1ccc(N(C(N)=O)c2c(F)cccc2F)nc1-c1ccc(F)cc1F + Oc1cc(-c2nc(-c3ccccc3)[nH]c2-c2ccncc2)ccc1Cl [L779450] (first compound 2 µM, partner dose 1 µM)	66.1
Cc1ccc(NC(=O)c2cccc(N(C)C)c2)cc1NC(=O)c1ccc(O)cc1 + COC(=O)c1sccc1S(=O)(=O)Nc1ccc(Nc2ccccc2)cc1OC [GSK0660] (first compound 10 µM, partner dose 5 µM)	90.9
CN(NC(=O)CC(=O)NN(C)C(=S)c1ccccc1)C(=S)c1ccccc1 + COc1ccc2c(c1)CCC1C2CCC2(C)C(NCCCCCCN3C(=O)C=CC3=O)CCC12 [U73122] (first compound 0.03 µM, partner dose 2 µM)	78.6
COc1cc2c(Oc3ccc4[nH]c(C)cc4c3F)ncnc2cc1OCCCN1CCCC1 [cediranib] + Cc1cc([N+](=O)[O-])ccc1NS(=O)(=O)c1cc(Cl)ccc1Cl [FH535] (first compound 2 µM, partner dose 5 µM)	76.5
NC(=O)c1ccc(N(C(N)=O)c2c(F)cccc2F)nc1-c1ccc(F)cc1F + O=C(Nc1ccccc1)c1cc([N+](=O)[O-])ccc1Cl [GW9662] (first compound 2 µM, partner dose 10 µM)	62.1
CCCCCCCCc1ccc(CCC(N)(CO)CO)cc1 [fingolimod] + N#Cc1c(O)c2c(-c3ccc(-c4ccccc4O)cc3)csc2[nH]c1=O [A769662] (first compound 10 µM, partner dose 10 µM)	5.91
CCCCCCCCc1ccc(CCC(N)(CO)CO)cc1 [fingolimod] + O=C(Nc1ccccc1)c1cc([N+](=O)[O-])ccc1Cl [GW9662] (first compound 10 µM, partner dose 10 µM)	1.04
Cc1ccc(NC(=O)c2cccc(N(C)C)c2)cc1NC(=O)c1ccc(O)cc1 + COc1cc(N2CCC(N3CCN(C)CC3)CC2)ccc1Nc1ncc(Cl)c(Nc2ccccc2S(=O)(=O)C(C)C)n1 [NVP-TAE684] (first compound 10 µM, partner dose 0.4 µM)	79
COc1cc2c(Oc3ccc4[nH]c(C)cc4c3F)ncnc2cc1OCCCN1CCCC1 [cediranib] + CCN(CC)CCCCNc1ncc2cc(-c3cc(OC)cc(OC)c3)c(NC(=O)NC(C)(C)C)nc2n1 [PD173074] (first compound 2 µM, partner dose 0.5 µM)	84.5
Cc1ccc(NC(=O)c2cccc(N(C)C)c2)cc1NC(=O)c1ccc(O)cc1 + COc1ccc2c(c1)CCC1C2CCC2(C)C(NCCCCCCN3C(=O)C=CC3=O)CCC12 [U73122] (first compound 10 µM, partner dose 2 µM)	75.3
Cc1ccc(NC(=O)c2cccc(N(C)C)c2)cc1NC(=O)c1ccc(O)cc1 + Cc1cc([N+](=O)[O-])ccc1NS(=O)(=O)c1cc(Cl)ccc1Cl [FH535] (first compound 10 µM, partner dose 5 µM)	79.5
NC(=O)c1ccc(N(C(N)=O)c2c(F)cccc2F)nc1-c1ccc(F)cc1F + Cn1cc(/C=C2\C(=O)Nc3cccnc32)c2ccccc21 [GW441756] (first compound 2 µM, partner dose 2 µM)	74.1
NC(=O)c1ccc(N(C(N)=O)c2c(F)cccc2F)nc1-c1ccc(F)cc1F + O=S(=O)(c1ccccc1)N(CC(F)(F)F)c1ccc(C(O)(C(F)(F)F)C(F)(F)F)cc1 [T0901317] (first compound 2 µM, partner dose 7 µM)	123

From the supplement of paper PMC4604168 (melanoma cell lines)
